# According to the supplement of paper PMC8728848:
# The other results are listed elsewhere or left out.
# Columns and labels:
# Test in all cases: glycan array binding signal (z-score within array); higher = stronger binding
# Details in all cases: glycan notation: IUPAC condensed, linker removed
# [1] = target: GalNAc(a1-3)GalNAc(b1-3)Gal(a1-4)Gal(b1-4)GlcNAc
# Method in brief: (§1)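 Glycan array data came from 3228 arrays in the Consortium for Functional Glycomics database, and only arrays with an available protein sequence were kept. Glycan names were put into IUPAC-condensed notation, and columns mapping to the same glycan were averaged. The binding signal is a within-array Z-score, averaged across arrays of one protein sequence run at different concentrations or buffers and across linkers. A negative Z-score can be read as non-binding.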
# GalNAc(b1-3)Gal = target: GalNAc(b1-3)Gal
# Method in brief: as §1
# [2] = target: GalNAc(b1-3)Gal(a1-4)Gal(b1-4)GlcNAc
# Method in brief: as §1
# [3] = target: GalNAc(b1-3)Gal(a1-4)Gal(b1-4)GlcNAc(b1-3)Gal(b1-4)Glc
# Method in brief: as §1
# [4] = target: GalNAc(b1-3)Gal(a1-6)Gal(b1-4)Glc
# Method in brief: as §1
# GalNAc(b1-3)GalNAc = target: GalNAc(b1-3)GalNAc
# Method in brief: as §1
# GalNAc(b1-3)GlcNAc = target: GalNAc(b1-3)GlcNAc
# Method in brief: as §1
# GalNAc(b1-4)Gal(b1-4)Glc = target: GalNAc(b1-4)Gal(b1-4)Glc
# Method in brief: as §1
# GalNAc(b1-4)GlcNAc = target: GalNAc(b1-4)GlcNAc
# Method in brief: as §1
# [5] = target: GalNAc(b1-4)GlcNAc(b1-2)Man
# Method in brief: as §1
# [6] = target: GalNAc(b1-4)GlcNAc(b1-2)Man(a1-3)[GalNAc(b1-4)GlcNAc(b1-2)Man(a1-6)]Man(b1-4)GlcNAc(b1-4)GlcNAc
# Method in brief: as §1
# [7] = target: GalNAc(b1-4)GlcNAc(b1-3)GalNAc(b1-4)GlcNAc
# Method in brief: as §1
# GalNAc(b1-4)GlcNAc6S = target: GalNAc(b1-4)GlcNAc6S
# Method in brief: as §1
# GalNAc(b1-6)GalNAc = target: GalNAc(b1-6)GalNAc
# Method in brief: as §1
# GalNAc3S(b1-4)GlcNAc = target: GalNAc3S(b1-4)GlcNAc
# Method in brief: as §1
# GalNAc3S(b1-4)GlcNAc3S = target: GalNAc3S(b1-4)GlcNAc3S
# Method in brief: as §1
# [8] = target: GalNAc3S(b1-4)[Fuc(a1-3)]GlcNAc
# Method in brief: as §1
# GalNAc4S6S(b1-4)GlcNAc = target: GalNAc4S6S(b1-4)GlcNAc
# Method in brief: as §1
# GalNAc6S(b1-4)GlcNAc = target: GalNAc6S(b1-4)GlcNAc
# Method in brief: as §1
# Glc(a1-4)Glc = target: Glc(a1-4)Glc
# Method in brief: as §1
# [9] = target: Glc(a1-4)Glc(a1-4)Glc(a1-4)Glc
# Method in brief: as §1
# Glc(a1-6)Glc(a1-6)Glc = target: Glc(a1-6)Glc(a1-6)Glc
# Method in brief: as §1
# [10] = target: Glc(a1-6)Glc(a1-6)Glc(a1-6)Glc
# Method in brief: as §1
# Glc(b1-4)Glc = target: Glc(b1-4)Glc
# Method in brief: as §1
# Glc(b1-6)Glc = target: Glc(b1-6)Glc
# Method in brief: as §1
# GlcA(b1-3)Gal = target: GlcA(b1-3)Gal
# Method in brief: as §1
# GlcA(b1-3)GlcNAc = target: GlcA(b1-3)GlcNAc
# Method in brief: as §1
# GlcA(b1-6)Gal = target: GlcA(b1-6)Gal
# Method in brief: as §1
# [11] = target: GlcA3S(b1-3)Gal(b1-4)GlcNAc(b1-2)Man
# Method in brief: as §1
# [12] = target: GlcA3S(b1-3)Gal(b1-4)GlcNAc(b1-3)Gal(b1-4)Glc
# Method in brief: as §1
# [13] = target: GlcNAc(a1-3)Gal(b1-4)GlcNAc
# Method in brief: as §1
# [14] = target: GlcNAc(a1-4)Gal(b1-3)GlcNAc
# Method in brief: as §1
# [15] = target: GlcNAc(a1-4)Gal(b1-4)GalNAc
# Method in brief: as §1
# [16] = target: GlcNAc(a1-4)Gal(b1-4)GlcNAc
# Method in brief: as §1
# [17] = target: GlcNAc(a1-4)Gal(b1-4)GlcNAc(b1-3)Gal(b1-4)Glc
# Method in brief: as §1
# [18] = target: GlcNAc(a1-4)Gal(b1-4)GlcNAc(b1-3)Gal(b1-4)GlcNAc
# Method in brief: as §1
# [19] = target: GlcNAc(a1-4)Gal(b1-4)GlcNAc(b1-3)Gal(b1-4)GlcNAc(b1-3)Gal(b1-4)GlcNAc
# Method in brief: as §1
# [20] = target: GlcNAc(a1-4)Gal(b1-4)GlcNAc(b1-3)Gal(b1-4)[Fuc(a1-3)]GlcNAc(b1-3)Gal(b1-4)[Fuc(a1-3)]GlcNAc
# Method in brief: as §1
binder,measurement,setting,value
"Siglec-9 (Homo sapiens), Q9Y336 (protein) MLLLLLPLLWGRERAEGQTSKLLTMQSSVTVQEGLCVHVPCSFSYPSHGWIYPGPVVHGYWFREGANTDQDAPVATNNPARAVWEETRDRFHLLGDPHTKNCTLSIRDARRSDAGRYFFRMEKGSIKWNYKHHRLSVNVTALTHRPNILIPGTLESGCPQNLTCSVPWACEQGTPPMISWIGTSVSPLDPSTTRSSVLTLIPQPQDHGTSLTCQVTFPGASVTTNKTVHLNVSYPPQNLTMTVFQGDGTVSTVLGNGSSLSLPEGQSLRLVCAVDAVDSNPPARLSLSWRGLTLCPSQPSNPGVLELPWVHLRDAAEFTCRAQNPLGSQQVYLNVSLQSKATSGVTQGVVGGAGATALVFLSFCVIFVVVRSCRKKSARPAAGVGDTGIEDANAVRGSASQGPLTEPWAEDSPPDQPPPASARSSVGEGELQYASLSFQMVKPWDSRGQEATDTEYSEIKIHR",glycan array binding signal (z-score),[1],-0.17
same,glycan array binding signal (z-score),GalNAc(b1-3)Gal,0.074
same,glycan array binding signal (z-score),[2],-0.021
same,glycan array binding signal (z-score),[3],-0.128
same,glycan array binding signal (z-score),[4],-0.143
same,glycan array binding signal (z-score),GalNAc(b1-3)GalNAc,-0.304
same,glycan array binding signal (z-score),GalNAc(b1-3)GlcNAc,-0.117
same,glycan array binding signal (z-score),GalNAc(b1-4)Gal(b1-4)Glc,0.137
same,glycan array binding signal (z-score),GalNAc(b1-4)GlcNAc,-0.111
same,glycan array binding signal (z-score),[5],-0.119
same,glycan array binding signal (z-score),[6],-0.194
same,glycan array binding signal (z-score),[7],-0.061
same,glycan array binding signal (z-score),GalNAc(b1-4)GlcNAc6S,0.058
same,glycan array binding signal (z-score),GalNAc(b1-6)GalNAc,-0.064
same,glycan array binding signal (z-score),GalNAc3S(b1-4)GlcNAc,-0.152
same,glycan array binding signal (z-score),GalNAc3S(b1-4)GlcNAc3S,-0.184
same,glycan array binding signal (z-score),[8],-0.151
same,glycan array binding signal (z-score),GalNAc4S6S(b1-4)GlcNAc,0.223
same,glycan array binding signal (z-score),GalNAc6S(b1-4)GlcNAc,-0.175
same,glycan array binding signal (z-score),Glc(a1-4)Glc,-0.15
same,glycan array binding signal (z-score),[9],-0.154
same,glycan array binding signal (z-score),Glc(a1-6)Glc(a1-6)Glc,-0.217
same,glycan array binding signal (z-score),[10],-0.284
same,glycan array binding signal (z-score),Glc(b1-4)Glc,-0.233
same,glycan array binding signal (z-score),Glc(b1-6)Glc,-0.503
same,glycan array binding signal (z-score),GlcA(b1-3)Gal,-0.202
same,glycan array binding signal (z-score),GlcA(b1-3)GlcNAc,0.06
same,glycan array binding signal (z-score),GlcA(b1-6)Gal,-0.199
same,glycan array binding signal (z-score),[11],-0.029
same,glycan array binding signal (z-score),[12],0.196
same,glycan array binding signal (z-score),[13],-0.228
same,glycan array binding signal (z-score),[14],-0.275
same,glycan array binding signal (z-score),[15],-0.395
same,glycan array binding signal (z-score),[16],-0.269
same,glycan array binding signal (z-score),[17],-0.03
same,glycan array binding signal (z-score),[18],-0.343
same,glycan array binding signal (z-score),[19],-0.352
same,glycan array binding signal (z-score),[20],0.018
